These results are taken from the supplement of paper PMC8512760.

Test systems include HCC-1143; HCC-1187; MDA-468; SUM-149.
What all share (assay): cell viability relative to vehicle (% of vehicle); basal-like triple-negative breast cancer lines; higher = less cytotoxic
Conditions in all cases: 10 µM; 72 h

Counter-ions that a name gives are not always drawn. This is one part of the list. Many values rest on one well or one pass, so single values are uncertain.
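Further: stably firefly luciferase-GFP labeled cells in 96-well plates, viability read as luciferase photon flux after d-luciferin addition, treated wells normalized to vehicle wells, single-dose high-throughput screen.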

Turning to `NC(=O)CC[C@H](N)C(=O)O` [L-Glutamine], the cell viability with HCC-1143 worked out at 70.3; with HCC-1187, 100; in the assay on MDA-468, 110; in the assay with SUM-149, 92.5.
Turning to `NCCc1cnc[nH]1.O=P(O)(O)O.O=P(O)(O)O` [Histamine Phosphate], the cell viability with HCC-1143 stood at 73.5; in the assay on HCC-1187, 86.1; in the assay on MDA-468, 105; with SUM-149 it was 93.8.
As to `CCN(CCCc1ccccc1)CCCc1ccccc1.O=C(O)CC(O)(CC(=O)O)C(=O)O` [Alverine Citrate], the cell viability is 82.5 in the assay on HCC-1143, 88 in the assay on HCC-1187, 102 in the assay on MDA-468 and 90.7 with SUM-149.
As to `CCOc1ccc2ccccc2c1C(=O)NC1C(=O)N2C1SC(C)(C)C2C(=O)[O-].O.[Na+]` (stereo not given) [Nafcillin Sodium], the cell viability with HCC-1143 is 120; in the assay with HCC-1187, 114; in the assay on MDA-468, 103; with SUM-149, 122.
As for `CC(C)(C)NCC(O)c1ccc(O)c(CO)c1.O=S(=O)(O)O` (stereo not given) [Salbutamol Sulfate], the cell viability was 74.5 in the assay on HCC-1143, 94.6 in the assay on HCC-1187, 150 in the assay on MDA-468 and 93.2 with SUM-149.
As to `Cl.N=C(N=C(N)N)N1CCOCC1` [Moroxydine HCl], the cell viability in the assay on HCC-1143 was found to be 75.4; in the assay with HCC-1187, 102; with MDA-468 it was 107; in the assay on SUM-149 it was 100.
For `CNC(=C[N+](=O)[O-])NCCSCc1csc(CN(C)C)n1` [Nizatidine], the cell viability in the assay on HCC-1143 was 79.8; with HCC-1187, 98.4; in the assay with MDA-468, 98.8; in the assay with SUM-149, 105.
Turning to `CC(N)(Cc1ccc(O)c(O)c1)C(=O)O` (stereo not given) [Methyldopa], the cell viability with HCC-1143 was 92.6; in the assay on HCC-1187, 87.8; with MDA-468, 104; in the assay with SUM-149 it was 104.
With `CO/N=C(\C(=O)N[C@@H]1C(=O)N2C(C(=O)[O-])=C(COC(C)=O)CS[C@H]12)c1csc(N)n1.[Na+]` [Cefotaxime (sodium salt)], the cell viability with HCC-1143 was 76.7; with HCC-1187, 90.7; with MDA-468, 103; in the assay on SUM-149, 78.4.
As for `Cl.NCCc1ccc(O)c(O)c1` [Dopamine HCl], the cell viability was 97.7 in the assay with HCC-1143, 114 in the assay with HCC-1187, 108 in the assay on MDA-468 and 117 in the assay on SUM-149.
Taken in the same sequence, the figures for `OCC1OC(c2ccc(Cl)c(Cc3ccc(OC4CCOC4)cc3)c2)C(O)C(O)C1O` (stereo not given) were 78.1, 98.9, 108 and 109.
As for `O=C(O)c1ccccc1O` [Salicylic acid], the cell viability in the assay with HCC-1143 was 82.2; in the assay with HCC-1187, 90.8; in the assay with MDA-468 it was 121; in the assay on SUM-149, 117.
On to `O=c1cc[nH]c(=O)[nH]1` [Uracil], for which the cell viability in the assay with HCC-1143 stood at 78.5; in the assay on HCC-1187, 96.1; in the assay with MDA-468 it was 120; in the assay on SUM-149, 123.
Regarding `C=C1C(=CC=C2CCCC3(C)C2CCC3C(C)CCCC(C)C)CC(O)CC1O` (stereo not given) [Alfacalcidol], the cell viability was found to be 106 in the assay with HCC-1143, 150 with HCC-1187, 80.3 in the assay with MDA-468 and 70.8 with SUM-149.
Turning to `N.N.[Cl][Pt+2][Cl]` [Cisplatin], the cell viability in the assay on HCC-1143 stood at 91.4; in the assay with HCC-1187 it was 121; with MDA-468, 113; with SUM-149, 103.
As for `Cc1nccn1CC1CCc2c(c3ccccc3n2C)C1=O.Cl` (stereo not given) [Ondansetron HCl], the cell viability was 81.6 with HCC-1143, 68.4 with HCC-1187, 83.3 with MDA-468 and 123 with SUM-149.
For the compound `CCOC(=O)C1=C(C)NC(C)=C(C(=O)OC)C1c1cccc([N+](=O)[O-])c1` (stereo not given) [Nitrendipine], the cell viability in the assay on HCC-1143 is 84.9; in the assay with HCC-1187, 87.1; with MDA-468, 102; in the assay on SUM-149, 114.
Taken in the same sequence, the figures for `Cn1cnc2c(F)c(Nc3ccc(Br)cc3F)c(C(=O)NOCCO)cc21` were 87.9, 75.4, 98.2 and 99.1.
Turning to `CCOC(=O)c1ccc(OC(=O)CCCCCN=C(N)N)cc1.CS(=O)(=O)O` [Gabexate mesylate], the cell viability turned out to be 108 in the assay with HCC-1143, 81 in the assay with HCC-1187, 100 with MDA-468 and 136 with SUM-149.
Taken in the same sequence, the figures for `CCN(CC)C(=O)C(C#N)=Cc1cc(O)c(O)c([N+](=O)[O-])c1` [Entacapone] were 71.3, 90.9, 113 and 88.
Taken in the same sequence, the figures for `CC12CCC(=O)C=C1C1CC1C1C2CCC2(C)C1C1CC1C21CCC(=O)O1` (stereo not given) [Drospirenone] were 79.1, 98, 86.7 and 103.
`Cc1[nH]c(C=C2C(=O)Nc3ccccc32)c(C)c1CCC(=O)O` [TSU-68 (SU6668,Orantinib)]: the cell viability in the assay with HCC-1143 is 84.5; in the assay on HCC-1187 it was 92.7; in the assay on MDA-468 it was 73; with SUM-149, 123.
On to `CC(C)c1nc(N(C)S(C)(=O)=O)nc(-c2ccc(F)cc2)c1C=CC(O)CC(O)CC(=O)[O-].CC(C)c1nc(N(C)S(C)(=O)=O)nc(-c2ccc(F)cc2)c1C=CC(O)CC(O)CC(=O)[O-].[Ca+2]` (stereo not given) [Rosuvastatin Calcium], for which the cell viability in the assay on HCC-1143 is 73.9; in the assay on HCC-1187, 81.9; with MDA-468, 90.6; in the assay on SUM-149 it was 83.8.
Taken in the same sequence, the figures for `CCC(C)(C)c1ccc(CC(C)CN2CC(C)OC(C)C2)cc1.Cl` (stereo not given) [Amorolfine HCl] were 78.9, 107, 97.6 and 96.4.
As for `CN[C@H](CC(C)C)C(=O)N[C@H]1C(=O)N[C@@H](CC(N)=O)C(=O)N[C@H]2C(=O)N[C@H]3C(=O)N[C@H](C(=O)N[C@H](C(=O)O)c4cc(O)cc(O)c4-c4cc3ccc4O)[C@H](O)c3ccc(c(Cl)c3)Oc3cc2cc(c3O[C@@H]2O[C@H](CO)[C@@H](O)[C@H](O)[C@H]2O[C@H]2C[C@](C)(N)[C@H](O)[C@H](C)O2)Oc2ccc(cc2Cl)[C@H]1O` [Vancomycin hydrochloride], the cell viability in the assay on HCC-1143 was determined as 128; with HCC-1187, 93.3; in the assay with MDA-468, 86; in the assay on SUM-149, 101.
